We go through 24 compounds from paper PMC4336329 (PLoS ONE, 2015).

Each structure is given as a SMILES string. Hit rate of the full screen: of about 310,000 compounds, about 2,200 (0.71%) showed an effect of 50% or more. The effect is printed as a negative number. Some of the results follow.

human ether-à-go-go-related gene (hERG) potassium channel, sequence (Q12809 whole entry, looked up): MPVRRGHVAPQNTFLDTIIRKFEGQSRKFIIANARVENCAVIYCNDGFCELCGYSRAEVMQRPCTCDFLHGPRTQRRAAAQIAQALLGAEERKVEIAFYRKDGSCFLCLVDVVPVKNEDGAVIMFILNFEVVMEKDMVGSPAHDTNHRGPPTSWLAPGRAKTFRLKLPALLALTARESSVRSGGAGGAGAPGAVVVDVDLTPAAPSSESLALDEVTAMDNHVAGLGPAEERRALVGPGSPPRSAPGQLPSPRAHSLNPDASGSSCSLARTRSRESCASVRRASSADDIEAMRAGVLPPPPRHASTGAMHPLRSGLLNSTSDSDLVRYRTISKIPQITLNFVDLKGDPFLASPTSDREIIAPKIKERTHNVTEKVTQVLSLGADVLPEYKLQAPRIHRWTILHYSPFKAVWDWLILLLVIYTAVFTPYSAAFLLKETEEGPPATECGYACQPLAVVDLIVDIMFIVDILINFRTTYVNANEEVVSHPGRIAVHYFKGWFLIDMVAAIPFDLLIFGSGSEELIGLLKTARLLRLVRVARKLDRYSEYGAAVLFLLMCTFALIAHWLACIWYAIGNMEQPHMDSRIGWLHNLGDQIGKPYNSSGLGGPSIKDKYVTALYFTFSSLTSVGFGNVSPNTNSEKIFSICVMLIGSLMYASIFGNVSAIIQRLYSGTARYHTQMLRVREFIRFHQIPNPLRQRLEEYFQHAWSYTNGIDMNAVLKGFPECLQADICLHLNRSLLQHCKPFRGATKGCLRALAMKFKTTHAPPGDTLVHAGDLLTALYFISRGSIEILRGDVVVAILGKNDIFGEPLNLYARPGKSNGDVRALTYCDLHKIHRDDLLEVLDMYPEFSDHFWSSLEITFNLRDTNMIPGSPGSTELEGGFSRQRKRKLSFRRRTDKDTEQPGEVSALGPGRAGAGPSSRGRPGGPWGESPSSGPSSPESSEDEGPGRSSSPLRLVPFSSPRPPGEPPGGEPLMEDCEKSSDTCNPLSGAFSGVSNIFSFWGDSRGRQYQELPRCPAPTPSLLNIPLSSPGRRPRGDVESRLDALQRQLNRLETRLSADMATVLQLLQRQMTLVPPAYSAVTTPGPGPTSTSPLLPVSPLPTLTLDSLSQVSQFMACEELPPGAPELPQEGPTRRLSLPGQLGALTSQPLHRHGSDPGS

This assay addresses human ether-à-go-go-related gene (hERG) potassium channel (human, UniProt Q12809). Put plainly: primary screen, population patch clamp on CHO cells stably expressing hERG.
Regarding `CCc1ccc(NC(=S)N(CCC(C)C)C2CCN(C(C)=O)CC2)cc1`, the “hERG current change (%, negative = inhibition) at 1uM” value was found to be 4.58%.

Take `COc1cc(OC)c(OC)cc1CNCCNC(=O)c1ccco1`: the “hERG current change (%, negative = inhibition) at 1uM” value is 16.5%.

Take `O=C(NCC1CCCO1)c1ccc(COc2ccc(Cl)cc2)cc1` (stereo not drawn): the “hERG current change (%, negative = inhibition) at 1uM” value was determined as 3.24%.

`Cc1cc(C)c(C)c(S(=O)(=O)Nc2cccc(-n3cnnn3)c2)c1C`: the “hERG current change (%, negative = inhibition) at 1uM” value amounted to 18.3%.

Take `Cc1nnc2n1N=C(c1ccc3c(c1)NC(=O)CO3)CS2.Cl`: the “hERG current change (%, negative = inhibition) at 1uM” value was 7.37%.

Turning to `O=C(NN=C1CCCCCC1)NC1CCCCC1`, the “hERG current change (%, negative = inhibition) at 1uM” value is listed as -0.0518%.

Take `C=CCn1c(SCC(=O)NCCc2ccccc2)nnc1C(C)NC(=O)c1cccs1` (stereo not drawn): the “hERG current change (%, negative = inhibition) at 1uM” value is 11.2%.

As to `CC(C)NC(=O)c1ccc(COc2ccc(C(C)(C)C)cc2)o1`, the “hERG current change (%, negative = inhibition) at 1uM” value is recorded as 10.8%.

As for `O=C(CCC1N=C2c3ccccc3N=C(SCC(=O)NCC3CCCO3)N2C1=O)NCc1ccc(F)cc1` (stereo not drawn), the “hERG current change (%, negative = inhibition) at 1uM” value is on record as 6.16%.

In the case of `Cc1ccc(S(=O)(=O)Cn2cnnn2)cc1`, the “hERG current change (%, negative = inhibition) at 1uM” value is listed as 9.39%.

As for `C=CCNC(=O)c1oc2ccc(S(=O)(=O)N3CCCCC3)cc2c1C`, the “hERG current change (%, negative = inhibition) at 1uM” value is listed as 12.7%.

With `CCCc1[nH]nc2c1C1(C(=O)N(CC(N)=O)c3ccccc31)C(C(=O)OC)=C(N)O2` (stereo not drawn), the “hERG current change (%, negative = inhibition) at 1uM” value came to 4.35%.

Consider `CCC(=O)N1CCc2cc(S(=O)(=O)CCC(=O)NCCc3ccc(OC)c(OC)c3)ccc21`, for which the “hERG current change (%, negative = inhibition) at 1uM” value is 5.24%.

On to `COc1ccc(-c2nnc3ccc(SCC(=O)Nc4nccs4)nn23)cc1OC`, for which the “hERG current change (%, negative = inhibition) at 1uM” value amounted to 3.93%.

`Cc1nnc2c(N(C)S(=O)(=O)c3ccccc3)nc3ccccc3n12`: the “hERG current change (%, negative = inhibition) at 1uM” value worked out at 14.6%.

Regarding `O=C(O)c1ccccc1C(=O)Nc1ccccc1[N+](=O)[O-]`, the “hERG current change (%, negative = inhibition) at 1uM” value is on record as 12.5%.

For the compound `O=C(N/N=C/c1ccc(O)cc1)/C(=C/c1ccc([N+](=O)[O-])cc1)NC(=O)c1ccccc1`, the “hERG current change (%, negative = inhibition) at 1uM” value was 14.7%.

On to `O=C(CSc1nc(-c2ccccc2)c(-c2ccccc2)o1)NCCCO`, for which the “hERG current change (%, negative = inhibition) at 1uM” value was -5.16%.

For the compound `COc1ccc(/C([O-])=C(/C(=S)Nc2ccc(C)c(C)c2)n2c[n+](C)c3ccccc32)cc1OC`, the “hERG current change (%, negative = inhibition) at 1uM” value was 7.62%.

Take `C/C(CCc1ccccc1)=N\NC(=O)CCc1ccccc1`: the “hERG current change (%, negative = inhibition) at 1uM” value is -0.863%.

Regarding `CCOC(=O)/C(C#N)=C/c1ccc(N2CCN(Cc3ccccc3)CC2)cc1`, the “hERG current change (%, negative = inhibition) at 1uM” value was 5.93%.

Take `CC1(C)Cc2c(c(-c3ccccc3)nc(N3CCCC3)c2C(N)=O)CO1`: the “hERG current change (%, negative = inhibition) at 1uM” value is recorded as 1.91%.

Consider `Oc1[nH]c2ccccc2c1C=Nc1ccccc1`, for which the “hERG current change (%, negative = inhibition) at 1uM” value is reported as -0.519%.

Regarding `COC(=O)c1cc(C(=O)OCC(=O)c2ccc[nH]2)cc([N+](=O)[O-])c1`, the “hERG current change (%, negative = inhibition) at 1uM” value is recorded as -0.0222%.
